Assay results as given in the supplement of paper PMC4166925.
± gives the standard deviation of the averaged measurements. Whole data set: some 33,000 sequences, median “E-score (dimensionless, -0.5 to 0.5)” near -0.046, cut for the highest 2% near 0.36. Some of the results follow.

Tested on: T1, SpTbr T-box DNA-binding domain (GST fusion)
T1 sequence: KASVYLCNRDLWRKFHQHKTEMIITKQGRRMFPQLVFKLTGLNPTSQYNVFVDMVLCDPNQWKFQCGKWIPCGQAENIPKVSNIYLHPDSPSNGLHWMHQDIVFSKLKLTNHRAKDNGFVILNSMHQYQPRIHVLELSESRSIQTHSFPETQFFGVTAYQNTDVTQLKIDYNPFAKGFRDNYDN
Assay: PBM E-score of 8-mer (E-score (dimensionless, -0.5 to 0.5)); Tbr is Tbrain of the sea star Patiria miniata (Pm) or the sea urchin Strongylocentrotus purpuratus (Sp); higher = stronger binding preference; most listed sequences are background and not binding sites
Conditions: the construct has about 5 more residues each side
Method in brief: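 Universal Agilent oligonucleotide arrays, made double-stranded by primer extension, were incubated with 200 nM GST-fused Tbr T-box DNA-binding domain in PBS (pH 7.5). The protein was expressed in BL21 E. coli at 20 °C and purified by glutathione affinity chromatography. After scanning and quantification, the Universal PBM Analysis Suite assigned an enrichment E-score to each ungapped 8-mer, averaged over duplicate arrays.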

Sequence	PBM E-score of 8-mer
GAAAAACA	-0.0565 ± 0.072
CCCTGGCA	-0.00203 ± 0.057
TAGGAGGA	-0.231 ± 0.054
ACCTCAAA	0.0838 ± 0.059
CTTACGGC	-0.14 ± 0.017
AAACCGGA	-0.114 ± 0.078
AACCTTTA	0.000765 ± 0.041
CCGTCCTC	-0.238 ± 0.029
GCTTTGCA	0.0233 ± 0.069
CTGGCGCA	0.0297 ± 0.041
AACACCCC	0.39126 ± 9.9e-05
CCAAGTAA	-0.21 ± 0.095
GTGCCCAC	-0.0496 ± 0.09
CTTTTAGA	-0.198 ± 0.021
GACGAGTA	-0.14 ± 0.054
AGAGTTAT	0.0165 ± 0.045
GACACAGC	0.102 ± 0.062
CCCCCGCC	0.0682 ± 0.0058
CGATGTCA	0.1339 ± 0.00055
AACGCTAG	0.0849 ± 0.072
CCATCATC	-0.119 ± 0.067
ACGTCTCT	-0.0624 ± 0.06
AGAACGAG	-0.00895 ± 0.029
TCCAGGCA	-0.379 ± 0.028
GCTCACAA	0.174 ± 0.018

Sequence	PBM E-score of 8-mer
ATATATAT	-0.045 ± 0.088
ATATCAAC	0.0891 ± 0.0058
CGTCCAAC	-0.116 ± 0.024
CTAGGCTC	-0.126 ± 0.0024
ACCGCGTG	0.281 ± 0.0042
AAGACACA	0.0932 ± 0.0087
GTCCCGAA	-0.214 ± 0.037
CAGCATGA	-0.154 ± 0.015
AAATATCT	-0.032 ± 0.06
ACCGGGTA	-0.164 ± 0.0056
TCCTACAA	-0.205 ± 0.071
AGTCGCAG	0.0537 ± 0.061
ACCAGGCT	0.0267 ± 0.043
GGTTGGAA	-0.0526 ± 0.071
TGCCCACA	0.0199 ± 0.1
GCCCCGTA	-0.0992 ± 0.0088
GGCCACTA	-0.0216 ± 0.031
CAACCCAA	-0.0957 ± 0.059
ATGAGTAG	0.0981 ± 0.045
CGAGACAG	-0.025 ± 0.054
ACGTTGTC	0.138 ± 0.015
GAAAGTTA	-0.154 ± 0.04
GCCCTAGA	-0.0999 ± 0.022
CATGAGCG	0.0747 ± 0.043
GACCTATC	-0.0644 ± 0.039

Sequence	PBM E-score of 8-mer
AATAAACT	-0.204 ± 0.056
AAGCACGC	-0.038 ± 0.06
GTCCTGCA	-0.197 ± 0.032
ACATTTCG	0.0619 ± 0.047
ATGGTCCG	-0.11 ± 0.029
CCCCCCGA	-0.258 ± 0.029
CAAGAAAC	-0.237 ± 0.016
CGGTGTTA	0.3373 ± 0.0021
ATGCGGGC	-0.236 ± 0.023
ACATCAGT	0.0637 ± 0.059
ATGCACGC	-0.0415 ± 0.12
CGTACAAC	-0.00318 ± 0.038
GATCGCCC	0.0191 ± 0.023
ACTAGGTC	-0.14 ± 0.024
CGATTTAC	0.195 ± 0.0048
AATGTTTA	-0.0915 ± 0.04
ATTACCCA	-0.133 ± 0.04
TCTTATCA	-0.0338 ± 0.0036
CGACGGCC	-0.215 ± 0.012
ACGAGCCG	-0.011 ± 0.0085
ACAAGCTA	-0.0512 ± 0.041
ACGGGGTG	0.316 ± 0.016
TGAATTAA	-0.122 ± 0.026
CCTTCACC	0.14 ± 0.013
AGATTGGG	-0.309 ± 0.03

Sequence	PBM E-score of 8-mer
AAAACGCT	-0.158 ± 0.036
AGGAATTC	-0.303 ± 0.097
CAACTATA	-0.105 ± 0.033
ACCGTCCA	-0.108 ± 0.015
ATGCAGCA	-0.145 ± 0.0088
CAACGGTG	0.0338 ± 0.00058
CACCGCGA	0.202 ± 0.045
ACGTCAAT	0.0288 ± 0.029
AAAATTTC	-0.186 ± 0.091
TGGGCTAA	-0.0697 ± 0.044
AACGGTCG	0.084 ± 0.0082
CCTCGGCG	-0.129 ± 0.13
AGGAGCCC	-0.23 ± 0.022
AAGTCGAC	0.133 ± 0.01
AAAACACA	0.106 ± 0.081
AAAAAAAG	-0.0758 ± 0.034
CCTCAGTC	0.00568 ± 0.037
GATGAAAA	0.0525 ± 0.042
CTTCAACA	0.136 ± 0.049
AAATGCTC	-0.0185 ± 0.052
CTTCTTAA	-0.0647 ± 0.059
AGCAATTC	0.0799 ± 0.11
AGGGCGCG	0.324 ± 0.057
AAACTCAG	-0.301 ± 0.017
CGCCCGAA	-0.0276 ± 0.04

Sequence	PBM E-score of 8-mer
CCACCATC	0.0489 ± 0.024
ATTCCATA	-0.128 ± 0.062
TCACCGGA	-0.29 ± 0.0093
GGAGAAAC	-0.128 ± 0.045
CGCGGCGC	0.204 ± 0.064
ACATAGAT	-0.0781 ± 0.0099
CAAGAGAC	-0.123 ± 0.035
ATCGCTGA	0.00415 ± 0.019
CCCCACAC	0.334 ± 0.018
CCCCTTTC	-0.132 ± 0.052
ATGTGATG	0.329 ± 0.009
ATCAAAGC	-0.281 ± 0.0077
TAGCGAAA	-0.0569 ± 0.011
TAGCTACA	-0.226 ± 0.0092
ACAGCTGT	0.316 ± 0.013
TCGGCCGA	-0.0448 ± 0.043
TCCAGACA	0.0637 ± 0.019
GACTTGTA	-0.0936 ± 0.046
AGCCCAGG	-0.273 ± 0.029
AACTGAGT	-0.0793 ± 0.048
CCTCCTCA	0.0831 ± 0.027
AGACACGC	0.134 ± 0.021
AATGGTAT	-0.0995 ± 0.053
GAGACGCC	-0.168 ± 0.1
GTAACTCA	0.0452 ± 0.039

Sequence	PBM E-score of 8-mer
CAAACGGA	-0.0112 ± 0.027
ACACTGCG	0.2 ± 0.067
CTACCTCC	0.0136 ± 0.024
AAGGAGGG	-0.0491 ± 0.018
AAAGTGCA	0.128 ± 0.027
ACCCATAC	-0.178 ± 0.0069
ACTGCCCT	0.0181 ± 0.01
AAAAAGGC	0.069 ± 0.037
CGGATAAG	-0.102 ± 0.017
CGTGGCCC	-0.0587 ± 0.053
AATCTCGA	-0.0331 ± 0.011
GGGGTGCA	0.0939 ± 0.048
CGACTGCG	-0.0458 ± 0.08
ACCATATA	-0.338 ± 0.022
GTCATGAC	-0.0503 ± 0.035
ACCAAATG	-0.0159 ± 0.069
CGAAACAA	-0.0107 ± 0.018
ACCCTAGT	-0.0332 ± 0.021
AAGAGCGA	-0.199 ± 0.0033
GAAACTCA	0.0591 ± 0.029
GCAATCCA	0.0612 ± 0.022
GGGCCCAC	-0.125 ± 0.074
ACCGCTCA	-0.0847 ± 0.031
ATTTCGAC	0.0456 ± 0.049
AATTTGAT	-0.22 ± 0.0049

Sequence	PBM E-score of 8-mer
CGTCGCTC	-0.0419 ± 0.15
CGGGAGTA	-0.0751 ± 0.05
GCAACAGC	0.064 ± 0.047
ACTCGGAA	-0.0578 ± 0.023
TTCAGCAA	0.1121 ± 0.00026
ACAACCGC	0.123 ± 0.059
TATCGGCA	0.0114 ± 0.0094
CCCCAATC	0.0403 ± 0.017
CGTCCTAC	-0.306 ± 0.079
TCCTTACA	-0.0729 ± 0.062
ATAGTAAT	-0.0977 ± 0.013
AGACCAGG	-0.0868 ± 0.027
AGTTACAA	-0.08804 ± 0.00042
ATCTGGAA	-0.192 ± 0.14
CCGTACAC	0.0596 ± 0.042
CAAGGGGG	-0.213 ± 0.046
GCCACGCA	0.0155 ± 0.021
CACGCGTA	0.212 ± 0.014
AATGCTGC	-0.147 ± 0.055
CTGTACCA	-0.0774 ± 0.055
ATGACGTG	0.0931 ± 0.037
ACGAAGCC	-0.00822 ± 0.065
